# Reference: PubChem BioAssay AID624418 (National Center for Advancing Translational Sciences (NCATS), 2012)
# The whole screen tested about 410,000 compounds, of which about 530 (0.13%) were called active. Inconclusive means that the source gave no clear call. Such entries were picked first, then a sample of the others. The call rests on the fitted dose curve; in most records, active means well fitted inhibition curve with a large enough effect; inconclusive means small, poorly fitted or top-dose-only effect, or another doubt; inactive means no such curve, though single readings can be large or run the other way. Where the call is inconclusive, the potency comes from a doubtful curve fit.
# Experiment: qHTS of GLP-1 Receptor Inverse Agonists: Cytotox Screen
# Conditions: HEK293 cAMP-luciferase reporter cells, luminescence, 24 h; activity change, negative = inhibition: at 38.3 µM (top of the series) unless noted
# Summary of the method: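 Luminescence readout: signal drop marks cytotoxicity. Plated cells grew 12 h at 37 °C, 5% CO2, received 23 nL compound for 24 h, then got luciferase reagent, read after 12 min at RT.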
# On the % scale 0 is the no-effect control and ±100 the full control effect; potency means the concentration at half of the fitted maximal effect.
Compound,Potency,"activity change, negative = inhibition"
Cc1ccc(F)cc1NC(=S)NCCc1ccccc1,"inconclusive: 20 µM [inhibitor, single point]",–
CCCc1nc2sc3ccccc3c(=O)c2c(=O)n1Cc1ccccc1,"inconclusive: 3.55 µM [inhibitor, full curve, poor fit]",–
O=S(=O)(c1ccc(-n2cnnn2)cc1)N1CCN(c2cccc(C(F)(F)F)c2)CC1,–,inactive: 6.56%
CN1c2ccccc2C(C)(C)C12C=Nc1c(cc(N3CCOCC3)c3ccccc13)O2 (configuration not stated),"inconclusive: 31.6 µM [inhibitor, single point]",–
Cc1ccccc1C(=O)NCCCNC(=O)c1ccco1,"inconclusive: 28.2 µM [inhibitor, single point]",–
N#CCC(=O)N/N=C\c1ccccc1OC/C=C/c1ccccc1,"inconclusive: 0.501 µM [inhibitor, full curve, poor fit]",–
Cc1ccc(NC(=O)Cn2c(=O)c3cccn3c3ccccc32)c(Cl)c1,"inconclusive: 10 µM [inhibitor, partial curve]",–
Cc1cc(NC(=O)CSc2nc3c([nH]c4ccccc43)c(=O)n2-c2cccc(C(F)(F)F)c2)no1,"inconclusive: 6.31 µM [inhibitor, partial curve, poor fit]",–
COc1ccc(NC(=S)N(CCC(C)C)C2CCN(C(C)C)CC2)cc1,"inconclusive: 25.1 µM [inhibitor, single point]",–
Cc1c(C(=O)N(Cc2ccco2)Cc2ccccc2Cl)oc2ccc(F)cc12,–,inactive: 2.96%
COc1ccc(NC(=O)c2cc([N+](=O)[O-])ccc2N2CCCC2)cc1S(N)(=O)=O,"inconclusive: 10 µM [inhibitor, partial curve]",–
CC(=O)c1cccc(NC(=O)Cc2noc3ccccc23)c1,–,inactive: -4.3%
COc1cc(CCc2ccccc2)c(C(=O)O)c(O)c1CC=C(C)C,–,inactive: -10.9%
O=c1[nH]c(COc2ccc(Br)cc2Cl)nc2ccccc12,"inconclusive: 31.6 µM [inhibitor, single point]",–
O=C(c1cnn2ccccc12)N(Cc1ccco1)C1CCCC1,"inconclusive: 3.55 µM [inhibitor, partial curve]",–
CCCC(=O)Nc1cc(C)c2c(=O)oc3ccccc3c2n1,–,inactive: 4.74%
CCOc1ccc2nc(C)cc(Nc3cccc([N+](=O)[O-])c3)c2c1,"inconclusive: 31.6 µM [inhibitor, single point]",–
CCOC(=O)c1[nH]c2cc(OC)c(OC)cc2c1NC(=O)c1nonc1C,"inconclusive: 2.82 µM [inhibitor, partial curve, poor fit]",–
O=C(Nc1ccc2nc3n(c(=O)c2c1)CCCCC3)c1c(F)ccc([N+](=O)[O-])c1F,"inconclusive: 2.82 µM [inhibitor, partial curve, poor fit]",–
CC(C)(C)OC(=O)NCCOC(=O)c1[nH]cnc1C(=O)NCc1ccccc1,"inconclusive: 0.501 µM [inhibitor, full curve, poor fit]",–
NC(Cc1ccccc1)c1csc(Nc2ccc(C(=O)c3ccccc3)cc2)n1 (configuration not stated),"inconclusive: 15.8 µM [inhibitor, single point]",–
CC(C)(C)C(=O)Nc1nc2c(s1)CN(Cc1ccccc1)CC2,–,inactive: 54.2%
N=c1n(CC(=O)c2ccc(Br)s2)c2ccccc2n1Cc1ccccc1,"inconclusive: 11.2 µM [inhibitor, single point]",–

Compound,Potency,"activity change, negative = inhibition"
COc1ccc(CCN2CC(C(=O)N(C)CC(=O)Nc3ccc(Cl)c(C(F)(F)F)c3)CC2=O)cc1OC (configuration not stated),"inconclusive: 31.6 µM [inhibitor, single point]",–
CC(C)Nc1nc(Oc2ccc(Cl)cc2Cl)cc(C(F)(F)F)n1,–,inactive: -31.3%
O=C(OCC(=O)N(Cc1ccccc1)Cc1ccccc1)c1ccccc1NCCO,–,inactive: 3.8%
CCn1c(COc2ccc(C(C)C)cc2)nnc1SCC(=O)Nc1nccs1,–,inactive: 6.5%
COc1cc([C@@H]2CC=C(C(=O)O)[C@H](c3ccc(F)cc3)N2S(=O)(=O)c2ccc(C)cc2)cc(OC)c1OC,"inconclusive: 20 µM [inhibitor, single point]",–
CCOC(=O)c1ccc(NC(=O)Nc2ccc(F)cc2)cc1,"inconclusive: 10 µM [inhibitor, single point]",–
CCNC(=S)N/N=C/c1cccs1,"inconclusive: 28.2 µM [inhibitor, single point]",–
CCOC(=O)NC1(C(F)(F)F)NC(=O)N(c2ccc(F)cc2)C1=O (configuration not stated),–,inactive: 6.87%
CN(C)c1ccc(NC(=O)CSc2nc(C3CC3)nc3ccccc23)cc1,"inconclusive: 4.47 µM [inhibitor, full curve, poor fit]",–
CCc1cccc(NC(=O)C2CCCN2S(=O)(=O)c2ccc3nc(-c4ccccc4)[nH]c3c2)c1 (configuration not stated),"inconclusive: 14.1 µM [inhibitor, single point]",–
CCOC(=O)CCn1nnc(N)n1,"inconclusive: 0.501 µM [inhibitor, full curve, poor fit]",–
Cc1ccc(OCCN2CCN(c3nc(NCc4ccco4)c4ccccc4n3)CC2)cc1,"inconclusive: 28.2 µM [inhibitor, single point]",–
CCN(C[C@H]1N[C@@](Cc2ccccc2)(C(=O)OC)[C@H]2C(=O)N(Cc3ccccc3)C(=O)[C@@H]12)C(=O)Nc1ccc(Cl)cc1,"inconclusive: 11.2 µM [inhibitor, single point]",–
COc1ccc(Nc2nc(NCc3cccs3)nc3ccsc23)cc1OC,"inconclusive: 31.6 µM [inhibitor, single point]",–
O=C(c1ccc(Br)cc1)N(Cc1ccco1)c1ccccn1,–,inactive: 0.865%
COc1ccc(CCNC(=O)c2ccc3c(c2)nc2n3CCCCC2)cc1OC,–,inactive: 5.72%
COc1ccc(/C=C(\C#N)C(=O)NC(C)c2ccccc2)cc1O (configuration not stated),"inconclusive: 20 µM [inhibitor, single point]",–
Cc1nc(-c2ccccn2)nc(SCC(=O)c2ccc(F)cc2)c1Cl,"inconclusive: 10 µM [inhibitor, single point]",–
S=c1[nH]nc(-c2ccco2)n1/N=C/C=C/c1ccccc1,"inconclusive: 28.2 µM [inhibitor, single point]",–
CC(=O)c1ccc(N=Nc2c(C)[nH][nH]c2=O)cc1,"inconclusive: 2.82 µM [inhibitor, partial curve, poor fit]",–
CCOC(=O)c1cc(C)n(CC2CCC(C(=O)Nc3cccc(C(C)=O)c3)CC2)c1C (configuration not stated),–,inactive: -3.25%
O=C(NC(=S)NCCC1=CCCCC1)c1cncc(Br)c1,"inconclusive: 28.2 µM [inhibitor, single point]",–
CCOC(=O)C1=C(C)NC(=O)NC1c1ccc(-c2ccc(Cl)cc2)o1 (configuration not stated),"inconclusive: 14.1 µM [inhibitor, single point]",–

Compound,Potency,"activity change, negative = inhibition"
Cc1ccnc(NC(=O)c2cc([N+](=O)[O-])cc([N+](=O)[O-])c2)c1,–,inactive: -0.129%
CCCCNC(=S)NNC(=O)c1csc(C)c1C,"inconclusive: 10 µM [inhibitor, partial curve]",–
COC(=O)c1ccccc1NC(=O)Cn1nnc(-c2ccc(OC)cc2)n1,"inconclusive: 3.55 µM [inhibitor, full curve, poor fit]",–
CC(=O)NC1=CC(=C[N+](=O)[O-])C=C1O,"inconclusive: 11.2 µM [inhibitor, partial curve]",–
O=C(CCNS(=O)(=O)c1ccc(Br)cc1)NCc1ccc(F)cc1,"inconclusive: 14.1 µM [inhibitor, single point]",–
COc1ccc(NS(=O)(=O)c2cc(NC(=O)[C@@H](NC(=O)c3ccccc3)C(C)C)ccc2C)cc1,"inconclusive: 12.6 µM [inhibitor, single point]",–
COc1ccc(-c2c(C(F)(F)F)nn(C)c2NC(C)=O)cc1,"inconclusive: 22.4 µM [inhibitor, single point]",–
CN1CCN(C(=S)NC(=O)c2ccc(-c3ccccc3)cc2)CC1,"inconclusive: 12.6 µM [inhibitor, partial curve, poor fit]",–
C=CCNC(=S)NNC(=O)C(CCC(C)C)CC(C)(C)O (configuration not stated),"inconclusive: 10 µM [inhibitor, partial curve]",–
CCOC(=O)c1cnc(-n2nc(C)cc2C)nc1Nc1ccc(C)cc1,"inconclusive: 1.12 µM [inhibitor, full curve, poor fit]",–
CCOC(=O)c1c(NC(=S)N2CCCCC2)sc2c1CCN(C(=O)OCC)C2,"inconclusive: 12.6 µM [inhibitor, single point]",–
CCn1c(SCC(=O)Nc2ccccc2OC)nnc1-c1cnccn1,"inconclusive: 7.08 µM [inhibitor, partial curve, poor fit]",–
CCN(CC)c1ccc(NC(=S)NC(=O)c2cccs2)cc1,"inconclusive: 3.55 µM [inhibitor, full curve, poor fit]",–
COc1cccc(COC(=O)c2ccc3c(c2)NC(=O)C(C)S3)c1OC (configuration not stated),–,inactive: 1.35%
Cc1ccc(NC(=S)N/N=C/c2c(C)[nH]c3ccccc23)cc1,"inconclusive: 11.2 µM [inhibitor, single point]",–
COc1ccccc1CC(=O)NC1CC1,–,inactive: 2.49%
O=C(Nc1ccc2ccccc2c1)c1cnccn1,–,inactive: -1.44%
N#Cc1sc(NCc2cccc(Cl)c2)nc1Cl,–,inactive: -15.6%
COC(=O)c1c(C)oc2ccc(N(C(=O)c3ccncc3)S(=O)(=O)c3ccc(OC)cc3)cc12,"inconclusive: 1.41 µM [inhibitor, full curve, poor fit]",–
CCC(=O)NC(c1ccc(OC)cc1)c1cc(Cl)c2cccnc2c1O (configuration not stated),"inconclusive: 3.55 µM [inhibitor, full curve, poor fit]",–
COc1ccc(/C=C/C(=O)NC(=S)N2CCSCC2)cc1,"inconclusive: 11.2 µM [inhibitor, partial curve, poor fit]",–
